Data reported in PubChem BioAssay AID1159614 (National Center for Advancing Translational Sciences (NCATS), 2016).
The whole screen tested about 45,000 compounds, of which about 65 (0.1%) were called active. Calls follow the shape of the dose curve; as a rule, active = well fitted activation curve with a large enough effect; inconclusive = small, poorly fitted or top-dose-only effect; inactive = no such curve, though single readings can be large or run the other way. The list shows a part of the results.

What follows are molecules tested against Galactocerebrosidase (Homo sapiens) (UniProt P54803) (assay: A Novel Cell-Based Assay to Identify Small Molecules for B -Galactocerebrosidase). Conditions: 145M-Twi-hGALC-G270D cells (Twitcher mouse brain line with human GALC G270D), HMU-beta-Gal fluorescence, 48 h; series mostly up to 57.5 µM; activation: at the top concentration.
Method in brief: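 Fluorogenic HMU-b-Gal hydrolysis (0.1 mM final, pH 5.2 citrate-phosphate with 1 mg/mL sodium taurocholate; carbonate stop buffer) measures mutant GALC activity after compound treatment of live 145M-Twi Twitcher brain cells stably carrying human GALC-G270D, with wild-type GALC line alongside; activation sought.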
Also: 0% is about no effect; nearly all actives have a fitted effect of over 65% in size.

Chain of UniProt P54803 (P54803 whole entry, looked up): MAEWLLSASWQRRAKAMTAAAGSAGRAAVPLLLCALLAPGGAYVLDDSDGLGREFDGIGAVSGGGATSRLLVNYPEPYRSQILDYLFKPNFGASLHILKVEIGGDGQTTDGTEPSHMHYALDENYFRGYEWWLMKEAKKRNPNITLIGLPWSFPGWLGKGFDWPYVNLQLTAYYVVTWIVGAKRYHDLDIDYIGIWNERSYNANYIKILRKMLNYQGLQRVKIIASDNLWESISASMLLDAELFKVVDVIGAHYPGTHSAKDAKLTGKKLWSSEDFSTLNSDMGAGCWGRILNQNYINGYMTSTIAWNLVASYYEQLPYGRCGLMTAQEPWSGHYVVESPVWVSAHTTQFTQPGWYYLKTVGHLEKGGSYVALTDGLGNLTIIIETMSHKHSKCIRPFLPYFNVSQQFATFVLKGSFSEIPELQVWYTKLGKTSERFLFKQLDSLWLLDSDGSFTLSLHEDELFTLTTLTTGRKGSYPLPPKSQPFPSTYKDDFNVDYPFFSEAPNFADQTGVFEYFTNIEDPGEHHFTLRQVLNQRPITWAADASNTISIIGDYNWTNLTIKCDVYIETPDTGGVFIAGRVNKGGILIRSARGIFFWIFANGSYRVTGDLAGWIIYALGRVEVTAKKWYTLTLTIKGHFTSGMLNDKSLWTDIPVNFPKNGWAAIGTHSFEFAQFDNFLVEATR

activation, inactive:
Cc1ccc(NC(=O)CSc2[nH]c(=O)ncc2C)cc1 -11.3%
CSc1cccc(NC(=O)Cn2nnc(C(=O)NCCc3ccccc3)c2N)c1 -10.2%
Cc1cc(Cl)ccc1NC(=O)CN1C(=O)C(=O)c2ccccc21 -9.18%
Cn1c(=O)n(CCc2ccccc2)c(=O)c2c1nc1n2CCN1c1ccc(Cl)cc1 -1.21%
Cc1cccc(N2CCN(c3ccc(C(=O)O)cc3NC(=O)c3ccccc3F)CC2C)c1 (configuration not stated) -36.5%
C=CCN1CCc2nc(N)sc2CC1 -15.5%
COC(=O)C1=C(c2ccccc2)c2ccccc2S(=O)(=O)N1CC(=O)Nc1ccccc1C(F)(F)F -4.77%
CCCCC(=O)Nc1ccc(C(=O)OCc2cc(=O)n3nc(C4CC4)sc3n2)cc1 -6.74%
COc1ccc(S(=O)(=O)Cc2ccc(C(=O)NC3CCCCC3)o2)cc1 4.68%
CC(=O)c1ccc(N2CCN(C(=O)Nc3cccc(F)c3)CC2)cc1 -2.42%
Cc1cc(C)c2c(-n3cccc3)c(C(=O)NCCc3ccccc3)sc2n1 -10.2%
CCN(CC)c1ccc(C(=O)NCc2ccc3c(c2)CCN3C(C)=O)cc1 -18.8%
CC(C)CC(=O)Nc1c(C(=O)N2CCN(c3ccccc3F)CC2)oc2ccccc12 -29%
CC(C(=O)Nc1ccccc1C(F)(F)F)n1nc(-c2ccccc2)c2c(c1=O)CCCC2 (configuration not stated) -0.0805%
Cc1ncc(CO)c2c1Oc1nc(-c3ccccc3)nc(SCC(=O)Nc3cccc(C(F)(F)F)c3)c1C2 -0.777%
CCOc1ccc(N(CC)C(=O)CSc2n[nH]c(-c3ccccc3)n2)cc1 -1.76%
CCn1cc(C(=O)NCc2ccccc2Cl)c(=O)c2cc(S(=O)(=O)N3CCCCC3)ccc21 -19%
Cc1sc2c(c1C)c(=O)n(-c1cccc(C(F)(F)F)c1)c(=O)n2Cc1ccccc1C#N -12.1%
Cc1ccccc1NC(=O)CN1C(=O)CCn2nc(-c3cccn3C)cc21 -11%
Cc1ccc(OCCCCn2c(CCNC(=O)C(C)(C)C)nc3ccccc32)cc1 -14.3%
Cc1ccccc1-c1noc(CSc2nnc(-c3ccncc3)n2-c2ccc(F)cc2)n1 -3.94%
CCCCn1c(-c2ccc(C)cc2)c(C)n2c3c(=O)n(C)c(=O)n(C)c3nc12 -3.85%
CC1=C(C(=O)Nc2cccnc2)C(c2ccccc2)n2nc(SCc3ccccc3F)nc2N1 (configuration not stated) 4.53%
O=C(Cc1ccccc1)Nc1cccc(-c2nc3cccnc3s2)c1 -4.67%
O=C(NC1CCCC1)c1ccc2c(c1)N(Cc1ccccc1F)C(=O)c1ccccc1S2 -17.1%
Cc1oc(-c2ccc(C(=O)NCc3ccccc3)cc2)nc1CS(=O)(=O)c1ccccc1 -16.2%
COc1ccc(-c2coc3c2c(C)cc2oc(=O)cc(C)c23)cc1 -15.6%
O=C(CSc1n[nH]c(-c2ccccc2Cl)n1)N1CCN(c2ccccc2F)CC1 -11%
CCOc1ccc(N(CC(=O)NCc2ccc(Cl)cc2)S(=O)(=O)c2c(C)noc2C)cc1 -9.85%
COc1ccc(CCN2C(=O)N(c3ccc(F)cc3)C(=O)C2CC(=O)Nc2ccc(F)c(F)c2)cc1 (configuration not stated) -7.6%
Cc1cc(NC(=O)Nc2csc3c2CCCC3)ccc1Br -43.1%
COCCCNC(=O)C1CCC(Cn2c(=O)c3sccc3n(Cc3ccc(F)cc3)c2=O)CC1 (configuration not stated) -13%
Cc1cccc(N2CCN(C(=O)c3oc(=O)c4ccccc4c3-c3ccccc3)CC2)c1C 1.06%
Cc1c(NC(=O)c2ccc(N3CCC(C)CC3)c([N+](=O)[O-])c2)cccc1-c1nc2ccccc2o1 -27%
COc1ccc(CCNC(=O)CCc2c(C)nc3c(c(C)nn3-c3ccccc3)c2C)c(OC)c1 -3.89%
Cc1cccc(N(C)C(=S)Oc2ccc3c(c2)CCC3)c1 -14.4%
COc1ccccc1C(=O)Nc1nnc(SCc2cc(=O)n3ccc(C)cc3n2)s1 -5.18%
CCc1cccc(C)c1NC(=O)C(C)Sc1nc2c(c(=O)[nH]1)CCCC2 (configuration not stated) -1.37%
COc1ccc(-c2noc(N3CCN(c4cccc(C)c4C)CC3)n2)cc1OC -5.34%
Cc1ccc(OCc2ccc(-c3nc(C#N)c(N4CCC(C)CC4)o3)o2)cc1 -13.2%
Cc1cc(C)cc(NC(=O)c2sc3nc(-c4cc5ccccc5oc4=O)[nH]c(=O)c3c2C)c1 -15.5%
COC(=O)c1c(C)sc(-c2c(-c3cccc(Cl)c3)[nH]c3c2c(=O)[nH]c(=O)n3C)c1O -15.4%
CCc1ccccc1NC(=O)C1CCN(C2=NS(=O)(=O)C(c3ccc(C)c(C)c3)=C2C)CC1 0.274%
COc1ccc(C(=O)CN2C(=O)N(c3cc(C)ccc3C)S(=O)(=O)c3ccccc32)cc1 -8.76%
C=CC(=O)Nc1cc2c(Nc3ccc(F)c(Cl)c3)ncnc2cc1OCCCN1CCOCC1 -8.26%
CCCNC(=O)CCC(=O)N1Cc2ccccc2Oc2ncccc21 -2.81%
CCOC(=O)c1c(C)oc2nc(C)nc(NC(C)c3ccccc3)c12 (configuration not stated) -10.5%
CNC[C@H](O)c1ccc(O)c(O)c1 -6.52% [at 23.8 µM]
CC1=C(C(=O)OCc2ccc(C)cc2)C(c2ccccc2Cl)CC(=O)N1 (configuration not stated) -5.39%
Cc1nc2c3ccccc3nc(NNC(=O)CCC(=O)N3CCN(c4ccccc4)CC3)n2n1 -9.6%
Cc1cccc(OCC(=O)Nc2ccc3c(c2)nc(CCNC(=O)c2ccco2)n3C)c1 -11.9%
CCOc1ccc(CNC(=O)c2ccc(CS(=O)c3ccccc3)o2)cc1 (configuration not stated) -4.87%
O=C(C1CCN(S(=O)(=O)c2cccc3nonc23)CC1)N1CCN(c2ccccc2)CC1 5.38%
COc1ccc(NC(=O)c2nnn(Cc3ccc(Br)cc3F)c2N)c(OC)c1 -1.81%
CN1CCN(CCCN2c3ccccc3Sc3ccc(C(F)(F)F)cc32)CC1 -14.5%
Cc1ccc(Cl)cc1N1CCN(CCNC(=O)Nc2ccc(Cl)cc2)CC1 -3.63%
COc1ccc(N2CCN(C(=O)c3nc(-c4ccc(Cl)cc4)n4c3CCCCC4)CC2)cc1 -23.8%
Cc1ccc(N2CC(NC(=O)c3ccc4c(c3)OCO4)CC2=O)cc1 (configuration not stated) -16.1%
Cc1ccc(-n2c(SCC(=O)Nc3cccc(Cl)c3)nc3n[nH]c(C)c3c2=N)cc1 -27.9%
CC(=O)N1CCCc2ccc(NS(=O)(=O)c3ccc(F)cc3F)cc21 -8.96%
Cc1ccccc1NC(=O)Cn1nc(-c2ccc(F)cc2)c2cnc3ccccc3c21 -2.41%
CS(=O)(=O)N1CCc2cc(C(=O)N3CCN(c4ccc(F)cc4)CC3)ccc21 2.97%
